The record followed here is publication PMC7887432 (Biochemistry, 2020).

This test addresses Cy5-Rad6 (human, UniProt P49459, Cy5 on the N-terminus (one Cy5 dye per protein)). The test can be described thus: FRET or BRET.

B1: Rad18 (enzyme)
chain: not shown
Take B1: the binding result is recorded as “binds”.
